The test system of experiment [1] is RAW-Dual. As to the kind of experiment: IRF Lucia reporter activity, fold change vs agonist alone; cytotoxicity flag (confluency mask): not cytotoxic; higher = enhanced IRF activity. An outline of the steps:
(§1)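 Supernatant from RAW-Dual macrophages was read after 20 hours for IRF by QuantiLuc luminescence and for NF-κB by QuantiBlue absorbance at 620 nm. The cells (50,000 cells/well in DMEM, 384-well plates, 37 °C, 5% CO2) had received 50 nL of library stock by pin tool and, 1 h later, a PRR agonist. Reporter activity is expressed relative to agonist-alone wells as fold change, and wells were flagged cytotoxic if IncuCyte confluency was under 70% of agonist controls in both mask sets.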

Experiment [2] has as its system RAW-Dual. As to the kind of experiment: IRF Lucia reporter activity, fold change vs agonist alone; higher = enhanced IRF activity. As to conditions: agonist: MPLA (TLR4) […]. An outline of the steps: as §1
For experiment [3], the system named is RAW-Dual. As to the kind of experiment: IRF Lucia reporter activity, fold change vs agonist alone; cytotoxicity flag (confluency mask): cytotoxic (confluency <70% of control); higher = enhanced IRF activity. An outline of the steps:
as §1

The mark [4] stands for this setting: agonist: 3'3'-cGAMP (STING) 10 ug/mL.
The mark [5] stands for this setting: library stock concentration (final ~1000-fold dilution): 10 mM, cytotoxicity flag (confluency mask): not cytotoxic.
[6] abbreviates: library stock concentration (final ~1000-fold dilution): 10 mM, cytotoxicity flag (confluency mask): cytotoxic (confluency <70% of control).

Over roughly 2,900 compounds, “IRF Lucia reporter activity, fold change vs agonist alone” has its median near 0.9; the highest 2% begin near 2.8. This is one part of the list.

Consider `O=C(O)[C@H](O)Cc1ccc(O)c(O)c1` (library stock concentration (final ~1000-fold dilution): 10 mM water), for which the “IRF Lucia reporter activity” value in experiment [1] (setting [4]) stood at 1.69; in experiment [1] (agonist: LPS (TLR4) 0.1 ug/mL) it was 0.93.
Turning to `CCCN(CCC)CCc1cccc2c1CC(=O)N2.Cl`, the “IRF Lucia reporter activity” value in experiment [2] (setting [5]) came to 1.04.
As for `CCCN(CCC)CCc1cccc2c1CC(=O)N2.Cl` (library stock concentration (final ~1000-fold dilution): 10 mM), the “IRF Lucia reporter activity” value amounted to 1.05 in experiment [1] (setting [4]) and 0.939 in experiment [1] (agonist: LPS (TLR4) 0.1 ug/mL).
For `Cn1cc(C2=C(c3cccc(N)c3)C(=O)NC2=O)c2ccccc21` (library stock concentration (final ~1000-fold dilution): 10 mM), in that order: 0.134 and 0.0467.
The corresponding values for `[O-][n+]1cccc(-c2nc3c(Cl)cccc3cc2C(Nc2ncnc3cccnc23)C(F)(F)F)c1` (stereo not drawn) (library stock concentration (final ~1000-fold dilution): 10 mM) are 0.374 and 1.75.
Consider `O=C(CSc1nc2c(c(=O)n1-c1ccccc1)SCC2)Nc1ccc(-c2ccccc2)cn1`, for which the “IRF Lucia reporter activity” value in experiment [2] (setting [5]) amounted to 1.02.
As for `O=C(CSc1nc2c(c(=O)n1-c1ccccc1)SCC2)Nc1ccc(-c2ccccc2)cn1` (library stock concentration (final ~1000-fold dilution): 10 mM), the “IRF Lucia reporter activity” value amounted to 1.21 in experiment [1] (setting [4]) and 0.971 in experiment [1] (agonist: LPS (TLR4) 0.1 ug/mL).
Take `Cc1cc(C=Cc2ccc3cc(N(C)C)ccc3[n+]2C)c(C)n1-c1ccccc1`: the “IRF Lucia reporter activity” value in experiment [2] (setting [6]) stood at 0.168.
As to `Cc1cc(C=Cc2ccc3cc(N(C)C)ccc3[n+]2C)c(C)n1-c1ccccc1` (library stock concentration (final ~1000-fold dilution): 10 mM), the “IRF Lucia reporter activity” value in experiment [3] (setting [4]) amounted to 0.0366; in experiment [3] (agonist: LPS (TLR4) 0.1 ug/mL), 0.0247.
Consider `Cn1ncc(Cl)c1-c1cc(C(=O)NC(CN)Cc2ccc(F)c(F)c2)oc1Cl` (stereo not drawn), for which the “IRF Lucia reporter activity” value in experiment [2] (setting [5]) is 0.312.
As for `Cn1ncc(Cl)c1-c1cc(C(=O)NC(CN)Cc2ccc(F)c(F)c2)oc1Cl` (stereo not drawn) (library stock concentration (final ~1000-fold dilution): 10 mM), the “IRF Lucia reporter activity” value came to 0.131 in experiment [1] (setting [4]) and 0.379 in experiment [1] (agonist: LPS (TLR4) 0.1 ug/mL).
For `CCC(C)C(NC(=O)C(CCCCN)NC(=O)C(CCC(=O)O)NN)C(=O)NC(CCC(N)=O)C(=O)NC(C)C(=O)NC(CCCCN)C(=O)N1CCCC1C(=O)NC(C)C(=O)C(=O)C(CC(C)C)NC(=O)C(CCC(N)=O)NC(=O)C(NC(=O)C(NC(=O)C(CCCNC(=N)N)NC(=O)C(Cc1ccccc1)NC(=O)C(CCCCNNC(Cc1ccccc1)C(=O)NC(CO)C(=O)NC(CCC(=O)O)C(=O)NC(CO)C(=O)NC(C(=O)NC(CC(N)=O)C(=O)NC(C=O)CO)C(C)O)NC(=O)C(Cc1ccccc1)NC(=O)C(CO)NC(=O)C(CCC(=O)O)NC(=O)C(CO)NC(=O)C(NC(=O)C(CC(N)=O)NC(=O)C(N)CO)C(C)O)C(C)C)C(C)O` (stereo not drawn) (library stock concentration (final ~1000-fold dilution): 10 mM water), in that order: 1.21 and 0.916.
For `CN1C(=N)NC(C)(c2cc(NC(=O)c3ccc(F)cn3)ccc2F)CS1(=O)=O` (stereo not drawn) (library stock concentration (final ~1000-fold dilution): 10 mM), in that order: 1.2 and 1.21.
As for `CC(C)(O)CC(=O)NCCn1ccc2ncnc(Nc3ccc(Oc4cccc(C(F)(F)F)c4)c(Cl)c3)c21`, the “IRF Lucia reporter activity” value in experiment [2] (setting [6]) stood at 0.596.
In the case of `CC(C)(O)CC(=O)NCCn1ccc2ncnc(Nc3ccc(Oc4cccc(C(F)(F)F)c4)c(Cl)c3)c21` (library stock concentration (final ~1000-fold dilution): 10 mM), the “IRF Lucia reporter activity” value came out at 0.702 in experiment [3] (setting [4]) and 0.545 in experiment [3] (agonist: LPS (TLR4) 0.1 ug/mL).
With `CCC1(C)CC(=O)NC1=O` (stereo not drawn), in experiment [2] (setting [5]), the “IRF Lucia reporter activity” value came to 0.957.
Consider `CCC1(C)CC(=O)NC1=O` (stereo not drawn) (library stock concentration (final ~1000-fold dilution): 10 mM), for which the “IRF Lucia reporter activity” value stood at 1 in experiment [1] (setting [4]) and 0.548 in experiment [1] (agonist: LPS (TLR4) 0.1 ug/mL).
`Cc1c(C(=O)N2CCOc3ccc(-c4ccc(N)nc4)cc3C2)ccc(S(C)(=O)=O)c1F`: in experiment [2] (library stock concentration (final ~1000-fold dilution): 2 mM, cytotoxicity flag (confluency mask): not cytotoxic), the “IRF Lucia reporter activity” value is 1.18.
Turning to `Cc1c(C(=O)N2CCOc3ccc(-c4ccc(N)nc4)cc3C2)ccc(S(C)(=O)=O)c1F` (library stock concentration (final ~1000-fold dilution): 2 mM), the figures for the “IRF Lucia reporter activity” value in experiment [1] (setting [4]) and in experiment [1] (agonist: LPS (TLR4) 0.1 ug/mL) were 0.869 and 0.985, respectively.
The corresponding values for `CC(C)c1cc(C(C)C)c(CC(=O)NS(=O)(=O)Oc2c(C(C)C)cccc2C(C)C)c(C(C)C)c1` (library stock concentration (final ~1000-fold dilution): 10 mM) are 1.01 and 0.653.
With `CC(C)c1cc(C(C)C)c(CC(=O)NS(=O)(=O)Oc2c(C(C)C)cccc2C(C)C)c(C(C)C)c1`, the “IRF Lucia reporter activity” value in experiment [2] (setting [5]) came out at 1.09.
As to `O=C(NNc1nc2cc(F)ccc2n2cccc12)c1cnccn1` (library stock concentration (final ~1000-fold dilution): 10 mM), the “IRF Lucia reporter activity” value in experiment [1] (setting [4]) stood at 1.04; in experiment [1] (agonist: LPS (TLR4) 0.1 ug/mL), 1.02.
Turning to `O=C(NNc1nc2cc(F)ccc2n2cccc12)c1cnccn1`, in experiment [2] (setting [5]), the “IRF Lucia reporter activity” value turned out to be 1.07.
On the same count and under the same terms, the figure for `CCCCCCCCCCCCCCCc1cccc(O)c1C(=O)O` is 0.933.
For the compound `CCCCCCCCCCCCCCCc1cccc(O)c1C(=O)O` (library stock concentration (final ~1000-fold dilution): 10 mM), the entries for the “IRF Lucia reporter activity” value in experiment [1] (setting [4]) and in experiment [1] (agonist: LPS (TLR4) 0.1 ug/mL) were 0.662 and 0.982, respectively.
For `Nc1ncn(C2OC(CO)C(O)C2O)c(=O)n1` (stereo not drawn) (library stock concentration (final ~1000-fold dilution): 10 mM), in that order: 0.496 and 0.927.
Turning to `Nc1ncn(C2OC(CO)C(O)C2O)c(=O)n1` (stereo not drawn), the “IRF Lucia reporter activity” value in experiment [2] (setting [5]) was found to be 0.686.
Regarding `COC(=O)/C=C/C(=O)OC` (library stock concentration (final ~1000-fold dilution): 10 mM), the “IRF Lucia reporter activity” value in experiment [1] (setting [4]) turned out to be 0.619; in experiment [1] (agonist: LPS (TLR4) 0.1 ug/mL) it was 1.08.
On to `CCN1C(=O)C=CC1=O` (library stock concentration (final ~1000-fold dilution): 10 mM), for which the “IRF Lucia reporter activity” value in experiment [3] (setting [4]) is 0.565; in experiment [3] (agonist: LPS (TLR4) 0.1 ug/mL), 0.0147.
Regarding `CCN1C(=O)C=CC1=O`, in experiment [2] (setting [6]), the “IRF Lucia reporter activity” value was 0.16.
With `O=C(NC(Cc1cc(=O)[nH]c2ccccc12)C(=O)O)c1ccc(Cl)cc1` (stereo not drawn), the “IRF Lucia reporter activity” value in experiment [2] (setting [5]) was determined as 1.04.
For `O=C(NC(Cc1cc(=O)[nH]c2ccccc12)C(=O)O)c1ccc(Cl)cc1` (stereo not drawn) (library stock concentration (final ~1000-fold dilution): 10 mM), the “IRF Lucia reporter activity” value in experiment [1] (setting [4]) was determined as 1.11; in experiment [1] (agonist: LPS (TLR4) 0.1 ug/mL), 0.942.
With `CC1(C)CC[C@]2(NC(=O)C(C)(F)F)CC[C@]3(C)[C@H](C(=O)C=C4[C@@]5(C)C=C(C#N)C(=O)C(C)(C)[C@@H]5CC[C@]43C)[C@@H]2C1` (library stock concentration (final ~1000-fold dilution): 10 mM), the “IRF Lucia reporter activity” value in experiment [3] (setting [4]) was determined as 0.0143; in experiment [3] (agonist: LPS (TLR4) 0.1 ug/mL) it was 0.0184.

(Values after the supplement of paper PMC10037445.)
